{
  "source": "patent US4683292A",
  "about": "“Immunotherapeutic polypeptide agents which bind to lymphocyte immunoglobulin FC receptors” (Immunetech, Inc., priority 1983, dated 1987)",
  "key": {"[1]": {"test_system": "MONOCYTE/MACROPHAGE Fc Receptor IgG", "assay": "Rosette inhibition assay, IgG-coated ox erythrocytes, monocytes / U937", "type": "binding, human", "settings": "relative to intact monomeric myeloma protein at equal concentration; 15 min preincubation", "protocol": "(§1) The Fc receptor blocking activity of the subject peptides was assessed using well established techniques and procedures. In particular, a rosette assay was employed which uses either monomeric, chemically or heat aggregated human IgG or IgE obtained from human myeloma sera. (Gonzalez-Molina, et al., J. Clin. Invest., 59, 616 (1977); Spiegelberg, et al. in Immunoassays: Clinical Laboratory Techniques for the 1980's (Alan R. Liss: New York, 1980), pp. 287-300). The IgG or IgE is then adsorbed to ox-erythrocytes which has been previously treated with trypsin and pyruvic aldehyde. Fresh human cell PMNs, monocytes and basophils from a patient with basophilic chronic myelogenous leukemia or human cell lines (RPMI-8866, and Daudi for lymphocyte Fc receptors and U937 for monocyte/macrophage Fc receptors) were then incubated in the presence or absence of inhibitors (monomeric IgG or IgE or peptides) at equal concentrations for fifteen minutes before addition of the indicator oxerythrocytes. In the absence of inhibitors, the cells expresing surface Fc receptors formed rosettes, clusters of three or more indicator erythrocytes that bound to the cells by virtue of exposed Fc regions on the erythrocyte surface. Addition of inhibitor myeloma proteins or inhibitor peptides produced a reproducable reduction of rosette formation, […], phosphate buffered isotonic saline, was used alone as control and then multiplying the calculated quotient by 100.\n(§2) Table 1 presents the inhibition observed by representative peptide inhibitors calculated as a percentage of the inhibition observed with intact, monomeric myeloma proteins. Thus, 50 percent inhibition implys that the peptide was 50% as inhibitory as the intact myeloma protein to which it was compared."}, "[2]": {"test_system": "BASOPHIL Fc Receptor IgG", "assay": "Rosette inhibition assay, IgG-coated ox erythrocytes, basophils", "type": "binding, human", "settings": "relative to intact monomeric myeloma protein at equal concentration; 15 min preincubation", "protocol": "as §1, §2"}, "[3]": {"test_system": "NEUTROPHIL (PMN) Fc Receptor IgG", "assay": "Rosette inhibition assay, IgG-coated ox erythrocytes, fresh human PMNs", "type": "binding", "settings": "relative to intact monomeric myeloma protein at equal concentration; 15 min preincubation", "protocol": "as §1, §2"}, "[4]": {"test_system": "human peripheral mononuclear cells", "assay": "Spontaneous and lectin-induced mitogenesis, 125I-iododeoxyuridine incorporation", "type": "cell-based", "settings": "peptide 100 micrograms/ml, no mitogen"}, "[5]": {"test_system": "granulocytes, monocytes and macrophages", "settings": "cited from earlier work"}, "[6]": {"test_system": "human monocyte IgG Fc receptors", "settings": "cited from earlier work"}, "[7]": {"target": "T1, IgE Fc receptors on a human lymphoblastoid cell line (wil-2wt) (Homo sapiens, UniProt P06734)", "T1 construct": "host or cells: wil-2wt", "T1 sequence (P06734 1-321)": "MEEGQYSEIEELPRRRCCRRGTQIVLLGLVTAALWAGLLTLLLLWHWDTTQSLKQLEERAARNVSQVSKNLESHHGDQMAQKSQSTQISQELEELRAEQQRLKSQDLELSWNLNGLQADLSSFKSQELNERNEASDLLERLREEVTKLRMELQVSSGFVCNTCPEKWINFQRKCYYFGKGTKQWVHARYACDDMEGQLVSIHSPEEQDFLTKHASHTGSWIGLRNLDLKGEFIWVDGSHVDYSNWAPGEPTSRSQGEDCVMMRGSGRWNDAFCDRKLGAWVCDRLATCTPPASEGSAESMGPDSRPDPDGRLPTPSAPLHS", "settings": "Hamburger 1979; cited from earlier work"}},
  "note": "Part of at least one peptide drawing is inferred or uncertain, most often the ends. Ends that are not written are not given here. Peptide text beside a SMILES is read from it.",
  "data": [
    {"compound": "C[C@H](NC(=O)[C@H](CCCNC(=N)N)NC(=O)[C@@H](N)[C@@H](C)O)C(=O)N[C@@H](CCC(=O)O)C(=O)O", "note": "[Thr--Arg--Ala--Glu, Thr-Arg-Ala-Glu] (H-TRAE-OH)", "values": [
      {"measurement": "Rosette inhibition expressed as percent inhibition by monomeric IgG, monocyte/macrophage Fc receptor IgG", "setting": "[1]", "result": 24, "unit": "%"},
      {"measurement": "Rosette inhibition expressed as percent inhibition by monomeric IgG, basophil Fc receptor IgG", "setting": "[2]", "result": 44, "unit": "%"}
    ]},
    {"compound": "TVLHQNWLDGK", "values": [
      {"measurement": "Rosette inhibition expressed as percent inhibition by monomeric IgG, neutrophil (PMN) Fc receptor IgG", "setting": "[3]", "result": 88, "unit": "%"},
      {"measurement": "Rosette inhibition expressed as percent inhibition by monomeric IgG, monocyte/macrophage Fc receptor IgG", "setting": "[1]", "result": 74, "unit": "%"},
      {"measurement": "Rosette inhibition expressed as percent inhibition by monomeric IgG, basophil Fc receptor IgG", "setting": "[2]", "result": 78, "unit": "%"}
    ]},
    {"compound": "DSNPR [Asp--Ser--Asn--Pro--Arg]", "values": [
      {"measurement": "Rosette inhibition expressed as percent inhibition by monomeric IgG, neutrophil (PMN) Fc receptor IgG", "setting": "[3]", "result": "NS (NS indicates inhibition not significantly different from 0)"},
      {"measurement": "Rosette inhibition expressed as percent inhibition by monomeric IgG, monocyte/macrophage Fc receptor IgG", "setting": "[1]", "result": "NS (NS indicates inhibition not significantly different from 0)"},
      {"measurement": "Rosette inhibition expressed as percent inhibition by monomeric IgG, basophil Fc receptor IgG", "setting": "[2]", "result": "NS (NS indicates inhibition not significantly different from 0)"}
    ]},
    {"compound": "RSTTKTSGPR", "values": [
      {"measurement": "Rosette inhibition expressed as percent inhibition by monomeric IgG, monocyte/macrophage Fc receptor IgG", "setting": "[1]", "result": 75, "unit": "%"},
      {"measurement": "Rosette inhibition expressed as percent inhibition by monomeric IgG, basophil Fc receptor IgG", "setting": "[2]", "result": 90, "unit": "%"}
    ]},
    {"compound": "NCCCC[C@H](NC(=O)[C@H](CCC(N)=O)NC(=O)[C@@H](N)CCC(=O)O)C(=O)N[C@@H](CC(=O)O)C(=O)O", "note": "[Glu--Gln--Lys--Asp] (H-EQKD-OH)", "values": [
      {"measurement": "Rosette inhibition expressed as percent inhibition by monomeric IgG, basophil Fc receptor IgG", "setting": "[2]", "result": 18, "unit": "%"}
    ]},
    {"compound": "TISKAKGQPR", "values": [
      {"measurement": "Rosette inhibition expressed as percent inhibition by monomeric IgG, neutrophil (PMN) Fc receptor IgG", "setting": "[3]", "result": 124, "unit": "%"},
      {"measurement": "Rosette inhibition expressed as percent inhibition by monomeric IgG, monocyte/macrophage Fc receptor IgG", "setting": "[1]", "result": 100, "unit": "%"},
      {"measurement": "Rosette inhibition expressed as percent inhibition by monomeric IgG, basophil Fc receptor IgG", "setting": "[2]", "result": 108, "unit": "%"},
      {"measurement": "stimulation of mitogenesis (proliferation) of mononuclear cells by peptide alone", "setting": "[4]; day 3", "result": 50, "unit": "%"},
      {"measurement": "stimulation of mitogenesis (proliferation) of mononuclear cells by peptide alone", "setting": "[4]; day 5", "result": 331, "unit": "%"},
      {"measurement": "stimulation of mitogenesis (proliferation) of mononuclear cells by peptide alone", "setting": "[4]; day 7", "result": 283, "unit": "%"}
    ]},
    {"compound": "C[C@@H](O)[C@H](N)C(=O)N[C@@H](CCCCN)C(=O)N1CCC[C@H]1C(=O)N[C@@H](CCCNC(=N)N)C(=O)O", "note": "[Tuftsin, Thr-Lys-Pro-Arg] (H-TKPR-OH)", "values": [
      {"measurement": "stimulation of phagocytosis", "setting": "[5]; in vitro", "result": "stimulate phagocytosis"},
      {"measurement": "active concentration", "setting": "[5]; many species including humans, cows, dogs, rabbits, guinea pigs and mice", "result": "active at nanomolar concentrations"}
    ]},
    {"compound": "YSKLTVDKSR", "values": [
      {"measurement": "blocking of IgG binding to human monocyte IgG Fc receptors", "setting": "[6]; Ciccimarra et al. 1975, Ratcliffe and Stanworth 1982", "result": "could block"},
      {"measurement": "blocking of monocyte IgG binding", "setting": "[6]; Stanworth 1982", "result": "not able to demonstrate that this peptide could block monocyte IgG binding"}
    ]},
    {"compound": "PDARHSTTQPR [Pro--Asp--Ala--Arg--His--Ser--Thr--Thr--Gln--Pro--Arg]", "values": [
      {"measurement": "Rosette inhibition expressed as percent inhibition by monomeric IgG, neutrophil (PMN) Fc receptor IgG", "setting": "[3]", "result": 241, "unit": "%"},
      {"measurement": "Rosette inhibition expressed as percent inhibition by monomeric IgG, monocyte/macrophage Fc receptor IgG", "setting": "[1]", "result": 103, "unit": "%"},
      {"measurement": "Rosette inhibition expressed as percent inhibition by monomeric IgG, basophil Fc receptor IgG", "setting": "[2]", "result": "~ 120%"}
    ]},
    {"compound": "PDARHS [Pro--Asp--Ala--Arg--His--Ser, Pro-Asp-Ala-Arg-His-Ser]", "values": [
      {"measurement": "Rosette inhibition expressed as percent inhibition by monomeric IgG, neutrophil (PMN) Fc receptor IgG", "setting": "[3]", "result": 95, "unit": "%"},
      {"measurement": "Rosette inhibition expressed as percent inhibition by monomeric IgG, monocyte/macrophage Fc receptor IgG", "setting": "[1]", "result": 100, "unit": "%"},
      {"measurement": "Rosette inhibition expressed as percent inhibition by monomeric IgG, basophil Fc receptor IgG", "setting": "[2]", "result": 105, "unit": "%"},
      {"measurement": "blocking of human IgE-binding to IgE Fc receptors on wil-2wt", "setting": "[7]", "result": "could block"}
    ]},
    {"compound": "N=C(N)NCCC[C@H](NC(=O)[C@H](CO)NC(=O)[C@H](CCCCN)NC(=O)[C@@H](N)CC(=O)O)C(=O)O", "note": "[Asp--Lys--Ser--Arg, Asp-Lys-Ser-Arg] (H-DKSR-OH)", "values": [
      {"measurement": "Rosette inhibition expressed as percent inhibition by monomeric IgG, neutrophil (PMN) Fc receptor IgG", "setting": "[3]", "result": 27, "unit": "%"},
      {"measurement": "Rosette inhibition expressed as percent inhibition by monomeric IgG, monocyte/macrophage Fc receptor IgG", "setting": "[1]", "result": 49, "unit": "%"},
      {"measurement": "Rosette inhibition expressed as percent inhibition by monomeric IgG, basophil Fc receptor IgG", "setting": "[2]", "result": 64, "unit": "%"}
    ]}
  ]
}
